Source: the supplement of paper PMC4166925
± gives the standard deviation of the averaged measurements. In all, about 33,000 sequences were measured (“E-score (dimensionless, -0.5 to 0.5)”: median about -0.046, highest 2% from about 0.36 on). The list shows a part of the results.

test system: T1, SpTbr T-box DNA-binding domain (GST fusion); experiment: PBM E-score of 8-mer (E-score (dimensionless, -0.5 to 0.5)); Tbr is Tbrain of the sea star Patiria miniata (Pm) or the sea urchin Strongylocentrotus purpuratus (Sp); higher = stronger binding preference; most listed sequences are background and not binding sites; conditions: the construct has about 5 more residues each side
T1 sequence: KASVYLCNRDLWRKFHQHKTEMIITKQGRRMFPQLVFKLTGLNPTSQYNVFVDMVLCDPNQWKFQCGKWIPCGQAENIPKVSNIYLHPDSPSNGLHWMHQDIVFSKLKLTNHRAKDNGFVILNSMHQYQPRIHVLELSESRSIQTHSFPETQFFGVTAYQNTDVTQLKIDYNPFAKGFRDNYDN
How it was run: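 GST-fused Tbr T-box DNA-binding domains (the whole T-box plus about five flanking residues) were expressed in BL21 E. coli at 20 °C and purified by glutathione affinity chromatography. Universal Agilent oligonucleotide arrays were made double-stranded by primer extension, incubated with 200 nM protein in PBS (pH 7.5), then scanned and quantified. Every ungapped 8-mer was scored from probe intensities. The Universal PBM Analysis Suite gave each word an enrichment E-score, averaged over duplicate arrays.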

| Sequence | PBM E-score of 8-mer |
| --- | --- |
| AGTCTTAT | -0.0567 ± 0.077 |
| AGTTTACG | -0.0588 ± 0.034 |
| AGTGATGG | 0.158 ± 0.014 |
| CACCTGGG | 0.328 ± 0.011 |
| AGCCACGA | 0.0321 ± 0.012 |
| TAGAAAAA | -0.0231 ± 0.006 |
| AACTATGA | -0.112 ± 0.04 |
| GAACGTCC | -0.0438 ± 0.033 |
| CCATCGAC | -0.0348 ± 0.066 |
| ATGGTAAC | -0.0929 ± 0.012 |
| AGGATAAC | 0.0902 ± 0.044 |
| ATCGATAC | -0.0782 ± 0.076 |
| AGGCCATA | -0.0266 ± 0.0079 |
| ACTTAGTG | 0.0407 ± 0.029 |
| GCCACGTA | -0.0016 ± 0.033 |
| GGGAAATA | -0.169 ± 0.013 |
| CTATCTGC | -0.0522 ± 0.014 |
| CCCGCAGC | -0.0148 ± 0.069 |
| CAACGGCA | -0.00794 ± 0.037 |
| GGCAGTTA | 0.0315 ± 0.0055 |
| GATCGCAA | 0.2797 ± 0.00053 |
| CATGCTTC | -0.19 ± 0.07 |

| Sequence | PBM E-score of 8-mer |
| --- | --- |
| CGCGGTCC | -0.00405 ± 0.11 |
| AAATGAAC | -0.198 ± 0.019 |
| GACAGATA | 0.143 ± 0.035 |
| GTCATTAA | 0.00316 ± 0.0041 |
| CAGCTACG | -0.036 ± 0.0027 |
| CTAAGGAC | -0.147 ± 0.039 |
| TTAAGTAA | -0.184 ± 0.01 |
| ATTTATGC | -0.113 ± 0.077 |
| GACAAAAC | 0.0697 ± 0.024 |
| ACGCTTAG | 0.117 ± 0.025 |
| AGACTACA | -0.00961 ± 0.00044 |
| AATCGTCT | -0.0595 ± 0.019 |
| CAGGTTCG | 0.0675 ± 0.0036 |
| AGTGTATG | -0.0196 ± 0.045 |
| AGGCGTCA | 0.41 ± 0.005 |
| AAGCATTC | -0.15 ± 0.033 |
| ATTCCGAG | -0.0973 ± 0.067 |
| CGGGGACC | -0.349 ± 0.093 |
| CGGAGGCC | -0.367 ± 0.043 |
| CACTGGCA | 0.0605 ± 0.071 |
| CCAGCTCG | 0.0817 ± 0.089 |
| TCATACAA | 0.0828 ± 0.045 |

| Sequence | PBM E-score of 8-mer |
| --- | --- |
| ATATTCTG | 0.0118 ± 0.0024 |
| CTATTGAA | -0.125 ± 0.061 |
| AATACGTC | -0.0254 ± 0.053 |
| CTTACGCA | 0.0993 ± 0.0077 |
| CTAAGGTA | -0.0772 ± 0.058 |
| ACTTGTCC | 0.139 ± 0.015 |
| ATTAGCGA | 0.109 ± 0.096 |
| ATTACATC | -0.113 ± 0.0093 |
| AGATAAGG | -0.105 ± 0.031 |
| AGGTATAT | -0.0323 ± 0.0066 |
| ACAAGCCT | 0.0279 ± 0.036 |
| TAGTGACA | 0.417 ± 0.011 |
| GGTAGCTA | -0.314 ± 0.032 |
| GTCTGCAA | 0.0485 ± 0.0099 |
| AGGGGATC | -0.0989 ± 0.068 |
| ATTGTCAG | 0.0298 ± 0.045 |
| AGCGACCC | -0.119 ± 0.0033 |
| GAGAGACA | -0.0285 ± 0.021 |
| CGTAATCC | -0.0586 ± 0.074 |
| ACTGTACC | -0.175 ± 0.043 |
| AGCCGCAG | -0.132 ± 0.0029 |
| GACGAATA | -0.00716 ± 0.079 |

| Sequence | PBM E-score of 8-mer |
| --- | --- |
| CGTACAGA | -0.22 ± 0.072 |
| ATCTTCAA | -0.216 ± 0.015 |
| AATATGAG | -0.105 ± 0.034 |
| AAGGAATG | -0.156 ± 0.034 |
| ACACGCTC | 0.151 ± 0.0097 |
| GGGGCGCA | -0.227 ± 0.038 |
| ATCTAGCC | -0.279 ± 0.0046 |
| ACATTGAA | -0.147 ± 0.048 |
| CAGACTCG | -0.173 ± 0.011 |
| ACCTCAGC | 0.151 ± 0.039 |
| CTTGCCGA | 0.177 ± 0.018 |
| ATTAGCTC | 0.00266 ± 0.0068 |
| CCGCACCG | 0.176 ± 0.024 |
| ATAACCTA | -0.141 ± 0.0093 |
| AGGGCATG | -0.167 ± 0.061 |
| AGCCTACA | -0.0276 ± 0.02 |
| ACCGTGAA | 0.308 ± 0.026 |
| GGGCCTGA | -0.279 ± 0.0039 |
| CACTCGCC | 0.0885 ± 0.056 |
| CAACAGCC | -0.0955 ± 0.027 |
| CCGGTACA | -0.0965 ± 0.044 |
| CACGAAGA | -0.0563 ± 0.034 |

| Sequence | PBM E-score of 8-mer |
| --- | --- |
| ATGTCATC | -0.144 ± 0.015 |
| ACAGGTGC | 0.436 ± 0.013 |
| AGTGCCAG | 0.248 ± 0.0097 |
| ACGTAGTA | -0.261 ± 0.0064 |
| ACGGGCGA | 0.158 ± 0.0024 |
| ACTGATGG | -0.00902 ± 0.051 |
| GATTGGAA | -0.238 ± 0.014 |
| AAGTCATA | -0.0733 ± 0.096 |
| GATACTAA | -0.0271 ± 0.017 |
| AGAGGGGA | -0.116 ± 0.05 |
| GTCTCACA | 0.382 ± 0.0069 |
| AACCGGCG | -0.0711 ± 0.075 |
| GCAACCGC | 0.029 ± 0.0016 |
| ATGGAAAG | -0.0132 ± 0.082 |
| ACGCAAGA | -0.0517 ± 0.024 |
| ACAGGTTG | 0.221 ± 0.066 |
| CCGTTTCA | 0.00745 ± 0.022 |
| CCACGCTA | -0.0696 ± 0.069 |
| CAGTGTCA | 0.3068 ± 0.002 |
| CTCTACGA | -0.24 ± 0.1 |
| TACATAGA | -0.257 ± 0.092 |
